In PubChem BioAssay AID504332 (National Center for Advancing Translational Sciences (NCATS), 2011):
Hit rate of the full screen: of about 350,000 compounds, about 31,000 (8.9%) were called active. Inconclusive results, whose numbers are uncertain, are shown with a selection of clear calls. The call rests on the fitted dose curve; in most records, active means well fitted inhibition curve with a large enough effect; inconclusive means small, poorly fitted or top-dose-only effect; inactive means no such curve, though single readings can be large or run the other way. Potencies of inconclusive entries are doubtful fits and often do not repeat.
Further: nearly all actives have a fitted effect of over 75% in size.
On the % scale 0 is the no-effect control and ±100 the full control effect; potency means the concentration at half of the fitted maximal effect; tags describe the fitted curve by direction and shape.

The compounds below were run against Histone-lysine N-methyltransferase EHMT2 (Homo sapiens) (UniProt Q96KQ7) (assay: qHTS Assay for Inhibitors of Histone Lysine Methyltransferase G9a). Details: G9a H3K9 monomethylation, AlphaScreen, 2 h; activity, negative = inhibition: at 59 µM (top of the series) unless noted.
Sequence of UniProt Q96KQ7 (Q96KQ7 whole entry, looked up): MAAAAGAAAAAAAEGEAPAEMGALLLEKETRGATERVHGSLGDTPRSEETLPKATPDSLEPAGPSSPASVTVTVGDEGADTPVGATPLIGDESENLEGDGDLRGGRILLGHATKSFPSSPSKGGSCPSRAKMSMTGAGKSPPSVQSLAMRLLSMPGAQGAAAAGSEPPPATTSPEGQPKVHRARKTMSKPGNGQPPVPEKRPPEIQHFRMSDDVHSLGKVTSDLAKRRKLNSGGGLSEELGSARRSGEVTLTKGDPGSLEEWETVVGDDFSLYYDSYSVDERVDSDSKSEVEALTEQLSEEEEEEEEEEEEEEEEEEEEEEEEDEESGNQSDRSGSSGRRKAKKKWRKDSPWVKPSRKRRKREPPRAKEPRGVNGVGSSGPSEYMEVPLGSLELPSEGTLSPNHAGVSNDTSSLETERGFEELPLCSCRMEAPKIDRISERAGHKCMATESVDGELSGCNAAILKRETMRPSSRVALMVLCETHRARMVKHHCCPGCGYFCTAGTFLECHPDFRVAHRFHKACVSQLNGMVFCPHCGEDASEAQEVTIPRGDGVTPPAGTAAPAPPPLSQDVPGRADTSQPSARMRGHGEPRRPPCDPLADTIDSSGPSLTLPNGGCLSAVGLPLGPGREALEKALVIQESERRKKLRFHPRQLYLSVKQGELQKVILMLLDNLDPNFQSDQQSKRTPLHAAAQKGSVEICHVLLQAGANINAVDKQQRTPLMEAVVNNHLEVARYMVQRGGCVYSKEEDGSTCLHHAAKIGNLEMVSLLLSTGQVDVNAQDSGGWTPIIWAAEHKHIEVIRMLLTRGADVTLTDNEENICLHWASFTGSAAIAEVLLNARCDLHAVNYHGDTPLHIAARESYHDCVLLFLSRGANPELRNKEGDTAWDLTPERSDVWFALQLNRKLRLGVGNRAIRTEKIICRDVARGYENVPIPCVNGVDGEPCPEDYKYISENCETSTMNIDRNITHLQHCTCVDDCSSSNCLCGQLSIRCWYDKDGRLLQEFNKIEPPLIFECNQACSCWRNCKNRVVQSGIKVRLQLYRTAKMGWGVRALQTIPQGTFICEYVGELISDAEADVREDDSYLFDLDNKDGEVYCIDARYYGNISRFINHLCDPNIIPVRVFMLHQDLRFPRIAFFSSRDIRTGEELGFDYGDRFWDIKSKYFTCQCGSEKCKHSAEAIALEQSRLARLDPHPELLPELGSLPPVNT
Method in brief: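 Enzyme 20 nM + cpd, 15 min RT; add b-H3K9 pep 500 nM / SAM 20 uM; 2 h RT; anti-H3K9me1 Ab 0.5 ug/mL + SA donor / anti-rabbit acceptor beads 20 ug/mL each, 10 min; AlphaScreen read.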
With `CCOC(=O)c1ccccc1NC(=O)CN(c1cccc(C)c1C)S(=O)(=O)c1ccccc1` the Potency was inconclusive: 35.5 µM [inhibitor, single point].
With `CCc1nnc(NC(=O)[C@@H](NC(=O)c2cc(OC)cc(OC)c2)C(C)C)s1` the activity, negative = inhibition was inactive: -6.01% [at 12.7 µM].
`CCN1CCN(Cc2c(O)ccc3c2O/C(=C\C=C\c2ccccc2OC)C3=O)CC1` was tested, and the Potency was inconclusive: 3.98 µM [inhibitor, full curve, poor fit].
`CCn1cc(C(=O)N2CCN(c3ccccn3)CC2)c(=O)c2cc(S(=O)(=O)N(C)C3CCCCC3)ccc21` was tested, and the “activity, negative = inhibition” value was inactive: 0.208% [at 102 µM].
For `CCC(=O)Nc1ccc(NC(=O)C23CC4CC(CC(C4)C2)C3)cn1`, the Potency was inconclusive: 56.2 µM [inhibitor, partial curve].
`COc1ccc(C2CC(c3ccc(Cl)cc3Cl)Nc3nc(N)nn32)cc1` (stereo unspecified) was tested, and the Potency was inconclusive: 31.6 µM [inhibitor, single point].
For `COc1ccccc1CCNC(=O)Cc1ccc(NC(=O)N2CCSc3ncccc32)cc1`, the Potency was inconclusive: 5.01 µM [inhibitor, partial curve, poor fit].
With `Cc1cc(NC(=O)c2ccccc2)n(-c2nc3ccccc3[nH]2)n1` the Potency was inconclusive: 44.7 µM [inhibitor, partial curve, poor fit].
With `OCCNCCSc1nc(C2CCCCC2)n(-c2ccccc2Cl)n1` the Potency was inconclusive: 89.1 µM [inhibitor, partial curve, poor fit].
In the case of `COc1ccc2c(c1)SC1=NCCS(=O)(=O)N12`, the Potency is reported as inconclusive: 89.1 µM [inhibitor, single point].
In the case of `N#Cc1nc(-c2ccccc2F)oc1N1CCCC1`, the Potency is reported as inconclusive: 0.631 µM [inhibitor, full curve, poor fit].
In the case of `O=C(NNC(=O)c1ccccc1F)c1ccc(-c2ccc(Cl)cc2)o1`, the Potency is reported as inconclusive: 89.1 µM [inhibitor, single point].
`CCOc1ccccc1-n1c(SCC(=O)NC)nnc1-c1ccco1` was tested, and the Potency was inconclusive: 44.7 µM [inhibitor, partial curve, poor fit].
For `COc1cccc(NC(=S)N2CCN(S(=O)(=O)c3ccc(F)cc3)CC2)c1`, the Potency was inconclusive: 14.1 µM [inhibitor, partial curve, poor fit].
`O=c1c2ccccc2c(C=NCCCN2CCOCC2)c(O)n1Cc1ccccc1` was tested, and the Potency was inconclusive: 31.6 µM [inhibitor, single point].
With `COc1ccc(NC(=O)c2cccc(NS(=O)(=O)c3ccccc3)c2)cc1` the Potency was inconclusive: 89.1 µM [inhibitor, single point].
In the case of `CC(=O)c1ccc(S(=O)(=O)N2CCn3cccc3C2c2ccccc2F)cc1` (stereo unspecified), the Potency is reported as inconclusive: 14.1 µM [inhibitor, partial curve].
For `O=C(NC1CCCCC1)c1ccc(S(=O)(=O)c2ccccc2Cl)c([N+](=O)[O-])c1`, the Potency was inconclusive: 3.16 µM [inhibitor, partial curve, poor fit].
With `CCCS(=O)(=O)Nc1ccc(N2CCCCC2)c(S(=O)(=O)Nc2ccccc2OC)c1` the Potency was active: 11.2 µM.
`O=S(=O)(c1ccc(Cl)cc1)n1cccn1` was tested, and the Potency was inconclusive: 15.8 µM [inhibitor, partial curve, poor fit].
For `COCCNC(=O)c1ccccc1NC(=O)c1ccccc1SC`, the Potency was active: 4.47 µM.
`Cc1ccc(NC(=S)NC(=O)/C=C/c2ccc(Cl)cc2)cc1` was tested, and the Potency was inconclusive: 25.1 µM [inhibitor, single point].
For `Cc1cc(C)c(OCCCCN(C)Cc2ccccc2)c(C)c1`, the Potency was active: 1.26 µM.
With `CCOc1ccccc1NC(=O)C1CCN(S(=O)(=O)c2ccc3[nH]c(=O)oc3c2)CC1` the Potency was inconclusive: 39.8 µM [inhibitor, partial curve, poor fit].
With `CCN(CC)CCCNC(=O)c1cc(-c2ccccc2)c(N2CCCCC2)s1` the Potency was inconclusive: 79.4 µM [inhibitor, single point].
For `CCc1cccc(OCC(=O)Nc2ccc(S(=O)(=O)Nc3ncccn3)cc2)c1`, the “activity, negative = inhibition” value was inactive: -44.2%.
In the case of `Clc1ccc(-c2nnc3sc(-c4ccccn4)nn23)cc1`, the activity, negative = inhibition is reported as inactive: -7.12% [at 2.33 µM].
With `O=C(CCS(=O)(=O)c1cc(Br)cc2c1N(C(=O)C1CC1)CC2)N1CCN(c2cccc(Cl)c2)CC1` the Potency was inconclusive: 17.8 µM [inhibitor, partial curve, poor fit].
For `Cc1cccc(C(=O)Nc2ccc(O)cc2C(=O)O)c1`, the Potency was inconclusive: 50.1 µM [inhibitor, partial curve, poor fit].
With `COc1ccccc1Nc1nc(N)nc(CN2CCC(Cc3ccccc3)CC2)n1` the activity, negative = inhibition was inactive: -26.4% [at 12.7 µM].
In the case of `O=S(=O)(c1cccs1)N1CCN(S(=O)(=O)c2cccs2)CC1`, the “activity, negative = inhibition” value is reported as inactive: 34.9% [at 102 µM].
With `COC(=O)c1ccc(CNC(=O)c2ccc(S(=O)(=O)N3CCCC(C)C3)cc2)cc1` (stereo unspecified) the activity, negative = inhibition was inactive: 7.05% [at 12.7 µM].
`C#CCOCCOCCOCCNc1nc(N2CCN(C(=O)[C@H]([C@@H](C)CC)n3cc([C@@H](N)CC(C)C)nn3)CC2)nc(N2CCN(C(=O)[C@H](CCCCN)n3cc([C@@H](N)CO)nn3)CC2)n1` was tested, and the activity, negative = inhibition was inconclusive: -93.1% [inhibitor].
With `O=C(COC(=O)C1CC2C=CC1C2)NCc1ccco1` (stereo unspecified) the Potency was inconclusive: 89.1 µM [inhibitor, single point].
With `COc1cccc(NC(=O)C2CCN(C(=O)NC3CCCCC3)CC2)c1` the “activity, negative = inhibition” value was inactive: 15.3% [at 102 µM].
`Cc1cc(S(=O)(=O)NCc2ccc(N3CCN(C)CC3)cc2)c(C)s1` was tested, and the Potency was inconclusive: 39.8 µM [inhibitor, partial curve, poor fit].
With `O=C(COC(=O)CCC(=O)c1ccc(Cl)cc1)NCc1ccco1` the Potency was active: 50.1 µM.
For `COc1cc(NC(=O)C2CCN(C(=O)c3sc4nc[nH]c(=O)c4c3C)CC2)cc(OC)c1OC`, the “activity, negative = inhibition” value was inactive: 5.19%.
`CCc1ccc2oc(=O)cc(CN3CCN(c4ccc(F)cc4)CC3)c2c1` was tested, and the Potency was active: 50.1 µM.
With `CN(C(=O)CC1C(=O)NCCN1Cc1c(F)cccc1Cl)C1CCOCC1` (stereo unspecified) the Potency was active: 44.7 µM.
For `Nc1c(C(=O)O)sc2nc(-c3ccc(F)cc3)cc(-c3ccccc3)c12`, the Potency was inconclusive: 35.5 µM [inhibitor, partial curve, poor fit].
